In article PMC12136788:
This is one part of the list.

B1: ENSG00000083799:stop:overlap|stop_codon|ENSG00000083799|stop_codon|NA|stop_codon (ssRNA)
RNA: GGGAGUUCUACAGUCCGACGAUCCCGAUCGGGAUGGUACUGAAAACGCCUUUCUUCUGCAUGUGGCACAGGGUUCUGGUUUGUAGUGGGACAGUUUGUAGUGGGAUCGCCUGUUCUGAGUGAUAUUUUCUGAGAAAAUCCUUUCAACAGAGGAUUGAGCAUCA
B2: chr12:56205560:56205676:-|3pUTR|ENSG00000181852|unk|total|mutant (ssRNA)
RNA: GGGAGUUCUACAGUCCGACGAUCCUCUUGUGGCACAGGCCAUAAUUGUUCCACCGACCCCUCUCCCGCCCUGUGACUGCCGUCCGUUACUUUGAUAAUUUUCUUUGGCCAUUGUUUGUUUAUAUUUCACAAACUCCACCUACUCAACAGAGGAUUGAGCAUCA
B3: chr14:74942539:74942640:-|3pUTR|ENSG00000119630|msi1|total|mutant (ssRNA)
RNA: GGGAGUUCUACAGUCCGACGAUCGUGUAUUUAUUACCGUCACACUCUUCAGUGACUCCUGCUGGUACCUGCCCUCUAUUUAUCCGCCAACUGUUUCCCUGCUGAAUGCCUCGCUCCCUUCAAGACGAGGGGCAGGGAAGGACACAACAGAGGAUUGAGCAUCA
B4: ENSG00000075618:stop:overlap|stop_codon|ENSG00000075618|stop_codon|NA|stop_codon (ssRNA)
RNA: GGGAGUUCUACAGUCCGACGAUCACGCAGGCGUCCUGAAGGCCUCGGCGGAAACCGUGGACCCCGCCUCGCUCUGGGAGUACUAGGGCCGGCCCGUCCUUCCCCGCCCCUGCCCACAUGGCGGCUCCUGCCAACCCUCCCUGCCAACAGAGGAUUGAGCAUCA
B5: ENSG00000156687:stop:overlap|stop_codon|ENSG00000156687|stop_codon|NA|stop_codon (ssRNA)
RNA: GGGAGUUCUACAGUCCGACGAUCACAUUUCAGAAUCCCAGCUUGAUGAAGCCGACUUCAACUACAGCAGGCAAAAUGGACUCUAGUCCACUUCCUCCCAUGAGACAGAGUGAUGGCCAGCUUGGGGACAUUUGCUUUAAAUGGCAACAGAGGAUUGAGCAUCA
B6: chr10:69104613:69104714:+|3pUTR|ENSG00000122862|unk|FALSE|unique (ssRNA)
RNA: GGGAGUUCUACAGUCCGACGAUCACAUAUUUUACAGGGUGGAGUGUACUAUAUACUAUUACCUUUGAAUGUGUUUGCAGAGCUAGUGGAUGUGUUUGUCUACAAGUAUGAUUGCUGUUACAUAACACCCCAAAUUAACUCCCACAACAGAGGAUUGAGCAUCA
B7: chr16:56943551:56943652:+|3pUTR|ENSG00000051108|msi1|total|mutant (ssRNA)
RNA: GGGAGUUCUACAGUCCGACGAUCUGCAUGUCUAUGCUUGAGGAACUUUUCCAAAUGUGUGUGUCUGCAUGUGUGUUUGUACACCGAAGUCACCGAUGCAGAAGUGGUUCUGCUGGUACGAUUUGAUUCCUGUUGGAAUGUUUACAACAGAGGAUUGAGCAUCA
B8: chrX:131089436:131089558:+|3pUTR|ENSG00000147256|unk|total|mutant (ssRNA)
RNA: GGGAGUUCUACAGUCCGACGAUCGGGAAACCUCAAGUGCCGGUCUAAUCCGUGUUUCUGGGAUCCAAAGUCCGAGGAAAAUUCCGAUUUUAUUGCCUGGAUCUGCUUUAAAGACAAUUGGUGUUUACACCCUCUUGUCAGCAACAACAGAGGAUUGAGCAUCA
B9: chr17:82078764:82078865:-|3pUTR|ENSG00000169710|msi1_unk|total|mutant (ssRNA)
RNA: GGGAGUUCUACAGUCCGACGAUCCCGUGGGGUCUGCGCUUGGUCUUUCUGUGCUUGGAUUUGCAUAUUUAUUGCAUUGCUGGCCGAGACCCCCAGGCCUGUCCACCCUGCCAAGACUCCUCAGGCAGCGUGUGGGUCCCGCACCAACAGAGGAUUGAGCAUCA
B10: ENSG00000198589:be:win_5901|CDS|ENSG00000198589|bound_else_gene|NA|bound_elsewhere_windowed (ssRNA)
RNA: GGGAGUUCUACAGUCCGACGAUCCUGGGGAAAUUCUGCAGUGAGUCGUCCUCUUGAGUUCUGGCGCCUUGACUACUGGGAAGAUGACUUGCGGCGCCGGCGACGAUUUGUGCGUAACCCUCUAGGAUCGACACAUCCUGAAGCCAACAGAGGAUUGAGCAUCA
B11: chr2:205796339:205796442:+|3pUTR|ENSG00000118257|msi1|total|mutant (ssRNA)
RNA: GGGAGUUCUACAGUCCGACGAUCAAGUCCGCAAGUACUGUGGACAAGAAUGCUUAACCAUGCUGCUUCAGCCUUGAGAGACCCCGGUUCUUACACAUAUGCACACACGCAUACACACAUGCACGCACACACACAUACACACAUCAACAGAGGAUUGAGCAUCA
B12: chr8:42175503:42175666:-|3pUTR|ENSG00000104368|msi1|total|mutant (ssRNA)
RNA: GGGAGUUCUACAGUCCGACGAUCAUGAAAGCAUGUCUCAACCGUAAAAGAUAACAAGAUCUUUCAGGAAAGACGGAUUGCAUCCGAAACCGACAGUAUAUUUACCGUCACAAGAGCCCAGCAGGGCCUCAAAGUUGGGGCAGGCAACAGAGGAUUGAGCAUCA
B13: chr20:3963869:3963970:-|CDS|ENSG00000101236|unk|FALSE|bound_elsewhere (ssRNA)
RNA: GGGAGUUCUACAGUCCGACGAUCAAUCUGCCUCUCAACAUAUAUAUUGUGGUUUUUGGUACUGCUAUAUUUGUCUUCAUCCUUAGUUUACUCUUCUGUUGCUACUUGAUUAGGUAACCAAUUUUCAUUCUAUGUUACUUCAAACAACAGAGGAUUGAGCAUCA
B14: chr1:150648406:150648517:-|CDS|ENSG00000143457|unk|total|mutant (ssRNA)
RNA: GGGAGUUCUACAGUCCGACGAUCUCAGCGUAUGGACAAGCGAACACCCGCACUCCUGGUGCCCGCCCACUCCUCUGAUGUGCCCGAGAAUGUCUUCUCCUCUCUGACAGAUGACAAGUAUGAUGUGGCAAUGAAUCGAGCCAACAACAGAGGAUUGAGCAUCA
B15: chr3:15255350:15255451:-|3pUTR|ENSG00000131370|msi1|FALSE|unique (ssRNA)
RNA: GGGAGUUCUACAGUCCGACGAUCUGGGGUGGGAAAGGUGAAUGCCAGUGGGGAUGCGGGGGGAUGAGGGUAGGAGGGACUUAUAGAAGGGGAUUUGUGGCUGUGGGGGAGAAGGUUCUACAGCAUAAGCCUUAUCCUGCCAGCCAACAGAGGAUUGAGCAUCA
B16: chr15:42943230:42943331:-|3pUTR|ENSG00000159459|msi1|FALSE|unique (ssRNA)
RNA: GGGAGUUCUACAGUCCGACGAUCAUUAUGCUUAUGAAGUUUACUUACAAACAAGCAACUGAGUCACUUUAUUUUCUUUAGUGUAGUAUGUGAAGGCACUGGUUCAACAGGAUGGCUCCAGAACUGUGUUUUUCUAAUGUUUGGCAACAGAGGAUUGAGCAUCA
B17: chr20:31664451:31666086:-|three_prime_utr|ENSG00000171552|control|control|control (ssRNA)
RNA: GGGAGUUCUACAGUCCGACGAUCAUGCAGCCCAUGCCCACCUGCCCAUCACAGGGUUGGGCCCAGAUCUGGUCCCUUGCAGCUAGUUUUCUAGAAUUUAUCACACUUCUGUGAGACCCCCACACCUCAGUUCCCUUGGCCUCACAACAGAGGAUUGAGCAUCA
B18: chr10:17237356:17237519:+|3pUTR|ENSG00000026025|msi1_unk|total|mutant (ssRNA)
RNA: GGGAGUUCUACAGUCCGACGAUCAGACCGAUUUGGAACCGGAAUAAGCUCCCGUUCUUAACAACCGACACUCCUACAAGAUUCCGAAAAAAGUUUACAACAUAAUCCCGUUUACAGAAAAAUCUUGUGCCCGAAUACUUUUUACAACAGAGGAUUGAGCAUCA
B19: chr4:25747873:25747886:-|3pUTR|ENSG00000091490|msi1_unk|total|mutant (ssRNA)
RNA: GGGAGUUCUACAGUCCGACGAUCCCGCAGUUAUAAGGCACCUUGAAAUAAAUUGUUUGUGCCUGGAAAUGCAGGGAGGGCAACCGCUUUGUAAAUUGGUUUACAUUUUUCUCCUUGAAUUUUUCCCGGGUCCCCGUGCUUCCGCAACAGAGGAUUGAGCAUCA
B20: ENSG00000165672:stop:overlap|stop_codon|ENSG00000165672|stop_codon|NA|stop_codon (ssRNA)
RNA: GGGAGUUCUACAGUCCGACGAUCCUCCUACGAUCAAGCCAAGUCCAGCUGCUUCCAAAGAGUACUUUCAGAAGGUAAAUCAGUAGAUCACCCAUGUGUAUCUGCACCUUCUCAACUGAGAGAAGAACCACAGUUGAAACCUGCCAACAGAGGAUUGAGCAUCA
B21: chrX:107070192:107070425:-|CDS|ENSG00000089682|control|control|control (ssRNA)
RNA: GGGAGUUCUACAGUCCGACGAUCCGUUCUAGGAGCCAAAUGGCAGAAAAGGACUGGGAGGACCUCAACAUUUAGUAUUCUCUUAGUUUCCUUGCUUUCAGAAACAGUGUUCACAUCUUCAGCCAUGUAUGGCAUUCCCCAUCUCAACAGAGGAUUGAGCAUCA
B22: chr3:185917260:185917361:-|3pUTR|ENSG00000136527|msi1|FALSE|unique (ssRNA)
RNA: GGGAGUUCUACAGUCCGACGAUCUGGCAAAAAGCAACAAUAAACAGUUUGAUUUUUACUUUUCUUUCUAACAUAUCAAUGCUUAGCAGAACUAUUCAGAUUGUCAGUAGUAAAUUUAAAGACAAAUGCCCGUUUUCCUCCAGUCAACAGAGGAUUGAGCAUCA

These binders were tested against MSI1 full-length (mouse, UniProt Q61474 1-362) (assay: nsRBNS (natural sequence RNA bind-n-seq); RBNS binding buffer (assumed for nsRBNS): 25 mM Tris pH 7.5, 150 mM KCl, 3 mM MgCl2, 0.01% Triton X-100, 500 ug/ml BSA, 20 U/ml SUPERase-In, 4 C; UNK is unkempt and MSI1 is Musashi-1; names of the RNAs are library labels; protein concentration not given here; high values mean tight binding).
UniProt Q61474, sequence (Q61474 whole entry): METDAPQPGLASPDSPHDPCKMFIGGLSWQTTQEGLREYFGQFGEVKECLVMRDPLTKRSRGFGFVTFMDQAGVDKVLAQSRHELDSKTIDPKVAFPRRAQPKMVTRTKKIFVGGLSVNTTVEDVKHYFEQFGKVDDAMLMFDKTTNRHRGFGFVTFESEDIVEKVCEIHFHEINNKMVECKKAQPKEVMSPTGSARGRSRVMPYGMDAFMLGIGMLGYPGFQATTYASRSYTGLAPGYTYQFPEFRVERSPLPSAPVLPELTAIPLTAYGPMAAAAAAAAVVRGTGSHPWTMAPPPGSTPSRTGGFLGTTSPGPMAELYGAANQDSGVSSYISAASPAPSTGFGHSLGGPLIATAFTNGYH

Compared with B1, B2 is lower in binding signal: 1.94 enrichment R for the first, 0.685 enrichment R for the second.

Going from B3 to B4, the binding signal rises from 0.338 enrichment R to 0.517 enrichment R.

Going from B5 to B6, the binding signal rises from 0.362 enrichment R to 0.397 enrichment R.

B7 and B8 are the same in binding signal: 0.224 enrichment R for the first, 0.224 enrichment R for the second.

First: B9
Second: B10
The binding signal of the first is higher: 0.438 enrichment R for the first, 0.275 enrichment R for the second.

First: B11
Second: B12
The binding signal of the first is higher: 0.596 enrichment R for the first, 0.44 enrichment R for the second.

Going from B13 to B14, the binding signal falls from 1.96 enrichment R to 0.385 enrichment R.

Compared with B15, B16 is higher in binding signal: 0.885 enrichment R for the first, 5.02 enrichment R for the second.

First: B17
Second: B18
The binding signal of the first is higher: 1.38 enrichment R for the first, 0.307 enrichment R for the second.

Compared with B19, B20 is higher in binding signal: 0.378 enrichment R for the first, 0.684 enrichment R for the second.

Compared with B21, B22 is lower in binding signal: 2.62 enrichment R for the first, 1.1 enrichment R for the second.
